What all share (assay): Primary Screen for Target Class Profiling of Small Molecule Inhibitors of Methyltransferases
In experiment [1] the target is Glycine N-methyltransferase (Homo sapiens) (UniProt Q14749). The note with it: purified enzyme, MTase-Glo SAH luminescence; measured here: GNMT inhibition; at 40 µM; stronger effect = lower value. Put shortly:
(§1)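 Each enzyme was reacted with SAM and its substrate, with compounds tested once at 40 uM; SAH formed was read by MTase-Glo luminescence.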

For experiment [2], the target named is Guanidinoacetate N-methyltransferase (Homo sapiens) (UniProt Q14353). The note with it: purified enzyme, MTase-Glo SAH luminescence; measured here: GAMT inhibition; at 40 µM; stronger effect = lower value. Put shortly:
as §1

Experiment [3] deals with Histamine N-methyltransferase (Homo sapiens) (UniProt P50135). The note with it: purified enzyme, MTase-Glo SAH luminescence; measured here: HNMT inhibition; at 40 µM; stronger effect = lower value. Put shortly:
as §1

Experiment [4] has as its target Nicotinamide N-methyltransferase (Homo sapiens) (UniProt P40261). As to conditions: purified enzyme, MTase-Glo SAH luminescence; measured here: NNMT inhibition; at 40 µM; stronger effect = lower value. The procedure, abridged: as §1
The target of experiment [5] is Phenylethanolamine N-methyltransferase (Homo sapiens) (UniProt P11086). The note with it: purified enzyme, MTase-Glo SAH luminescence; measured here: PNMT inhibition; at 40 µM; stronger effect = lower value. Put shortly:
as §1

Where “and” joins values, the source holds several entries; their conditions need not be identical. Equal values may be shown once. This is one part of the list. Further columns of the screen follow, without active or inactive calls.
On the % scale 0 is the no-effect control and ±100 the full control effect.

`COc1ccc([C@@]2(O)c3c(ccc(CC=C(C)C)c3O)NC(=O)[C@@H]2OC)cc1`: the activity change, negative = inhibition in experiment [1] was 0%; in experiment [2] it was 1.08%; in experiment [3] it was 1.66%; in experiment [4], -13.9%; in experiment [5], 6.42%.

With `O=C(CCc1nnc2n(Cc3ccccc3)c(=O)c3ccccc3n12)Nc1cccc(Cl)c1`, the activity change, negative = inhibition in experiment [1] was -6.66%; in experiment [2] it was -0.541%; in experiment [3], -4.75%; in experiment [4], -4.49%; in experiment [5], -5.62%.

In the case of `COc1ccc(NC(=O)Cn2nc3n(Cc4ccccc4)c(=O)c4ccccc4n3c2=O)cc1`, the activity change, negative = inhibition in experiment [1] came out at 8.08%; in experiment [2], 1.9%; in experiment [3], 8.56%; in experiment [4], 6.2%; in experiment [5], 6.97%.

Take `O=C(Cn1c(=O)oc2cc(S(=O)(=O)N3CCCC3)ccc21)Nc1cccc(Cl)c1`: the activity change, negative = inhibition in experiment [1] is -0.864%; in experiment [2] it was 3.36%; in experiment [3], 4.34%; in experiment [4], -0.902%; in experiment [5], -41.6%.

Regarding `O=C(CN1CCOCC1)N1CCC(c2cc(N3CCCC3)ncn2)CC1`, the activity change, negative = inhibition in experiment [1] is -5.16%; in experiment [2], -2.92%; in experiment [3] it was -2.1%; in experiment [4] it was -4.53%; in experiment [5] it was -4.79%.

Take `COc1cc(/C=C/CO[C@@H]2O[C@H](CO)[C@@H](O)[C@H](O)[C@H]2O)cc(OC)c1O[C@@H]1O[C@H](CO)[C@@H](O)[C@H](O)[C@H]1O`: the activity change, negative = inhibition in experiment [1] was -2.04%; in experiment [2], -1.72%; in experiment [3] it was 2.09%; in experiment [4] it was -11.8%; in experiment [5], -10.7%.

For `CCCN1C(=O)c2ccc(-c3ccco3)n2CC1(C)C(=O)NCc1ccc(Cl)cc1` (stereo not given), the activity change, negative = inhibition in experiment [1] is -6.15%; in experiment [2] it was 0.289%; in experiment [3], -0.72%; in experiment [4], -3.32%; in experiment [5] it was -4.55%.

For the compound `Cc1nn(-c2ccccc2)c2c1C(C1CC1)N(C1CN(C(=O)Nc3ccccc3)C1)C2=O` (stereo not given), the activity change, negative = inhibition in experiment [1] was -5.02%; in experiment [2] it was -6.91%; in experiment [3], -3.53%; in experiment [4], -4.04%; in experiment [5], -6.7%.

For the compound `Cc1ncccc1C(=O)N1CCCN(C(=O)C2CC2)C(c2ccccc2)CC(=O)NCC1` (stereo not given), the activity change, negative = inhibition was -3.59% in experiment [1]; -7.04% in experiment [2]; -2.91% in experiment [3]; -4.34% in experiment [4]; -10.1% in experiment [5].

With `CCOc1ccccc1CN1C(=O)c2nc3ccccc3n2CC1(C)C(=O)NC1CCCCCC1` (stereo not given), the activity change, negative = inhibition in experiment [1] is -0.983%; in experiment [2] it was 4.38%; in experiment [3] it was 2.68%; in experiment [4], -5.92%; in experiment [5] it was -3.36%.

Regarding `CCc1ccc(N2C(=O)c3cc4sccc4n3CC2(C)C(=O)NC2CCCCC2)cc1` (stereo not given), the activity change, negative = inhibition in experiment [1] is -6.61%; in experiment [2], -0.331%; in experiment [3], -1.67%; in experiment [4], 3.97%; in experiment [5] it was -4.5%.

Turning to `CN(C)c1ccc(CN2C(=O)c3cc4ccccc4n3CC2(C)C(=O)NCc2ccccc2)cc1` (stereo not given), the activity change, negative = inhibition in experiment [1] was 1.49%; in experiment [2], 7.46%; in experiment [3], 3.62%; in experiment [4], -3.06%; in experiment [5], -0.866%.

Turning to `O=C(C1CC1)N1C[C@@H]2OCC(=O)N(CC3CC3)[C@@H]2C1`, the activity change, negative = inhibition in experiment [1] is -1.64%; in experiment [2] it was -0.971%; in experiment [3], 1.89%; in experiment [4], -2.34%; in experiment [5], 1.56%.

For `CCN(CC)Cc1ccc2cc(COC(=O)Nc3ccc(C(=O)NO)cc3)ccc2c1`, the activity change, negative = inhibition in experiment [1] was -6.19% and -12.4%; in experiment [2] it was -5.54%; in experiment [3], -64.5% and -20.1%; in experiment [4], -18.9% and -20.4%; in experiment [5], -7.36% and 10.2%.

For the compound `O=C(CC1CCOCC1)N1CCN(c2ncccn2)CC1`, the activity change, negative = inhibition in experiment [1] is -1.91%; in experiment [2], -3.24%; in experiment [3] it was -0.128%; in experiment [4], -2.75%; in experiment [5], -1.21%.

Consider `O=S(=O)(c1ccc(Cl)c(-c2nnc(-c3ccccc3)o2)c1)N1CCN(c2ccccc2)CC1`, for which the activity change, negative = inhibition was 15.1% in experiment [1]; 2.21% in experiment [2]; 12.3% in experiment [3]; -0.396% in experiment [4]; 9.27% in experiment [5].

Consider `COc1cccc(C(=O)COc2cc(O)c3c(=O)cc(-c4ccccc4)oc3c2)c1`, for which the activity change, negative = inhibition was -5.88% in experiment [1]; 3.74% in experiment [2]; -2.88% in experiment [3]; -2.38% in experiment [4]; -6.16% in experiment [5].

With `CC(C)c1cc2n(n1)CC(C)(C(=O)NC1CCCCCC1)N(Cc1cccc(F)c1)C2=O` (stereo not given), the activity change, negative = inhibition in experiment [1] was 4.32%; in experiment [2], 6.49%; in experiment [3] it was 8.63%; in experiment [4], -8.29%; in experiment [5] it was 1.9%.

Turning to `O=C(CC[C@@H]1CNC(=O)[C@@H]2C[C@H](NC(=O)C3CC3)CN12)NCc1cccs1`, the activity change, negative = inhibition in experiment [1] was -0.353%; in experiment [2], -6.62%; in experiment [3] it was -0.544%; in experiment [4], -8.47%; in experiment [5] it was 0.376%.

Regarding `Nc1nc(Cl)nc2c1ncn2[C@@H]1O[C@H](COP(=O)(O)OP(=O)(O)OP(=O)(O)O)[C@@H](O)[C@H]1O`, the activity change, negative = inhibition was found to be 64.2% in experiment [1]; 168% in experiment [2]; 36% in experiment [3]; 85.7% in experiment [4]; 31.2% in experiment [5].

Take `O=C(O)[C@H](Cc1ccc(Nc2nccc3ccncc23)cc1)NC1=C(Br)C(=O)C12CCCCC2`: the activity change, negative = inhibition in experiment [1] is -28.9%; in experiment [2], -16.1%; in experiment [3], -7.08%; in experiment [4], -29.8%; in experiment [5] it was -14.2%.

With `CC1CCC(NC(=O)C2(C)Cn3c(cc4occc43)C(=O)N2CCCN2CCCCC2C)CC1` (stereo not given), the activity change, negative = inhibition is 2.88% in experiment [1]; 4.61% in experiment [2]; -5.38% in experiment [3]; 6.11% in experiment [4]; 1.33% in experiment [5].

As to `CC(C)(C#N)c1ccc(N2C(=O)OCc3cnc4ccc(-c5cnc6ccccc6c5)cc4c32)cc1`, the activity change, negative = inhibition in experiment [1] was -2.43%; in experiment [2] it was 8.26%; in experiment [3], 7.81%; in experiment [4] it was -15.2%; in experiment [5], 2.22%.

Take `COc1ccc(CC(=O)NCc2ccccc2-c2ccccc2C(=O)NCCc2cccnc2)cc1`: the activity change, negative = inhibition in experiment [1] is 4.4%; in experiment [2] it was 6.21%; in experiment [3] it was 12.1%; in experiment [4], -14.3%; in experiment [5], -3.31%.

Take `CC(=O)NC1CCN(Cc2cn(-c3ccccc3F)nc2-c2cc(C)sc2C)C1` (stereo not given): the activity change, negative = inhibition in experiment [1] is -1.04%; in experiment [2], -0.104%; in experiment [3] it was 1.58%; in experiment [4], -7.01%; in experiment [5], 2.64%.

In the case of `O=C(Nc1ccc2c(N3CCCCC3)ncnc2c1)c1ccccc1C(F)(F)F`, the activity change, negative = inhibition is -36.3% in experiment [1]; -29.8% in experiment [2]; -68.3% in experiment [3]; -30.6% in experiment [4]; -17.4% in experiment [5].

In the case of `CCS(=O)(=O)N1CCC2(CC1)CC(N1CCN(C(C)C)CC1)CCO2` (stereo not given), the activity change, negative = inhibition was -3.52% in experiment [1]; 0.125% in experiment [2]; -4.05% in experiment [3]; 1.65% in experiment [4]; 3.08% in experiment [5].

Consider `COc1ccc(-c2cc3n(n2)CC(C)(C(=O)NCc2ccccc2)N(c2cc(C)ccc2C)C3=O)cc1` (stereo not given), for which the activity change, negative = inhibition was determined as 6.85% in experiment [1]; 0% in experiment [2]; 10.2% in experiment [3]; 7.26% in experiment [4]; 3.69% in experiment [5].

Take `O=C1CCCCC(C(=O)NCCc2ccncc2)N1` (stereo not given): the activity change, negative = inhibition in experiment [1] is -1.15%; in experiment [2] it was -0.018%; in experiment [3], -1.68%; in experiment [4], -3.07%; in experiment [5], -1.56%.

Source of the values: PubChem BioAssay AID1745853 (National Center for Advancing Translational Sciences (NCATS), 2022).
